Test results reported in PMC4336329 (PLoS ONE, 2015).
The whole screen tested about 310,000 compounds, of which about 14,000 (4.5%) showed an effect of 50% or more. Effects have a minus sign here. The list shows a part of the results.

These compounds were tested against human ether-à-go-go-related gene (hERG) potassium channel (human, UniProt Q12809) (assay: primary screen, population patch clamp on CHO cells stably expressing hERG).
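Also: peak tail current of the secondary pulse compared with the same well before compound.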

human ether-à-go-go-related gene (hERG) potassium channel, sequence (Q12809 whole entry, looked up): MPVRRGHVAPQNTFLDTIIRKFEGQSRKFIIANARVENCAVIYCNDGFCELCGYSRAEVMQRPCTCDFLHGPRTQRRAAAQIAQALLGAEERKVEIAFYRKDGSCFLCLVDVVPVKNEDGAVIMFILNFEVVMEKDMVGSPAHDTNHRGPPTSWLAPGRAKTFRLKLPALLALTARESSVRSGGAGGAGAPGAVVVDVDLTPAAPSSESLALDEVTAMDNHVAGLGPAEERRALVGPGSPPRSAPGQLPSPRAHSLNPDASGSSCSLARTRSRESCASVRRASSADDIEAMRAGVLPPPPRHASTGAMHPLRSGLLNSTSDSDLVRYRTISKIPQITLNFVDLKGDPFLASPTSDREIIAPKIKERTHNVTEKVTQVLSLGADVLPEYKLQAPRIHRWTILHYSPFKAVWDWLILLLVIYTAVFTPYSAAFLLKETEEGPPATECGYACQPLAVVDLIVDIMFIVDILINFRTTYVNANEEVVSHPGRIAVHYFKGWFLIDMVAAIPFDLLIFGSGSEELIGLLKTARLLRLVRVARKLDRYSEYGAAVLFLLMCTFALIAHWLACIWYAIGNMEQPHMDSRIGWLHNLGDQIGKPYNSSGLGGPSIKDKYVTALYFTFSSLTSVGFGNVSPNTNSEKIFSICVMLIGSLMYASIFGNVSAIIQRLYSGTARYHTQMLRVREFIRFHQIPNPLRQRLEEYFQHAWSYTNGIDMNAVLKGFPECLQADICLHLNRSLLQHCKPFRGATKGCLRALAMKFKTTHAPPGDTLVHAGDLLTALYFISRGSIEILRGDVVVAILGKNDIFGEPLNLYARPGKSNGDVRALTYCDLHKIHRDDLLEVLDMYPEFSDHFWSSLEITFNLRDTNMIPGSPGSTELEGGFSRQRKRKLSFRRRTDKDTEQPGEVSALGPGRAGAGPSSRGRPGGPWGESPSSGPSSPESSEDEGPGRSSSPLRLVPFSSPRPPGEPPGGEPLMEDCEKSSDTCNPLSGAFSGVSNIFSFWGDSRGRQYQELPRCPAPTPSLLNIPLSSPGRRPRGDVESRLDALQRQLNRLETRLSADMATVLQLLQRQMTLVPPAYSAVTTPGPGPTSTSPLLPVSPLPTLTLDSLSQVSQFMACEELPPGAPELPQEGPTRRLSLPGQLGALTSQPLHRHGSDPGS

| SMILES | hERG current change (%, negative = inhibition) at 10uM [%] |
| --- | --- |
| O=C(Nc1ccc(Cl)cc1Cl)c1csc(-c2cccnc2)n1 | -1.42 |
| O=C(NC1CCCC1)c1cccc(NC(=O)c2ccco2)c1 | -29.6 |
| Cc1cccc(C(=O)Oc2ccccc2C(=O)N2CCOCC2)c1 | -8.06 |
| COc1ccc(C(=O)NC2CC(C)(C)Cc3c2cnn3-c2ccccc2)cc1OC (stereo not drawn) | -39.7 |
| COCCCNC(=O)Cn1ccc(N)nc1=O | 11.4 |
| Clc1ccccc1Cn1c(/C=C/c2ccco2)nc2ccccc21 | 13.5 |
| COC(=O)C(Cc1cnc(Cl)s1)(C(=O)OC)c1ccc([N+](=O)[O-])cc1 | -36 |
| O=S(=O)(NC1CCCCC1N1CCN(c2ccc(F)cc2)CC1)c1ccccc1 (stereo not drawn) | -7.05 |
| Cc1cc(C)cc(C(=O)NCC(=O)N2CCN(c3cccc(Cl)c3)CC2)c1 | -21 |
| Cc1c(NC(=O)COc2ncnc3ccccc23)c(=O)n(-c2ccccc2)n1C | 8.23 |
| CCCC(=O)Nc1ccc(C(=O)NNC(=O)c2ccco2)cc1 | 22.3 |
| COc1cccc(-c2onc3ccc(C4(C)OCCO4)cc23)c1 | 17.5 |
| COc1cc(C(=O)O)ccc1OC(C)=O | 14.8 |
| COc1cc(CCC(=O)OCC(=O)Nc2c(C)cccc2C(C)C)cc(OC)c1OC | 23.4 |
| CC(C)(C)c1ccc(C(=O)N/N=C2\C3CN4CCN(C3)CC2(c2ccccc2)C4)cc1 | -14.8 |
| COCCNC(=O)C(c1ccncc1)N(C(=O)c1sc(C)nc1C)c1cccc(C)c1 (stereo not drawn) | 18.7 |
| O=C(CCN1C(=O)C2CC=CCC2C1=O)Nc1ccccc1Cl (stereo not drawn) | 6.92 |
| CCOc1ccc(S(=O)(=O)N2CCOCC2)cc1NC(=O)C1=COCCO1 | -4.66 |
| CCOc1nc(NCCO)nc(Nc2cc(Cl)ccc2OC)n1 | 0.612 |
| COc1ccc(-n2ncc3c(NCC(C)C)ncnc32)cc1 | -0.691 |
| Cc1ccc(-n2c3c(c(=O)[nH]c2=S)C(C(F)(F)F)(C(F)(F)F)NC(=O)N3)cc1 | -3.85 |
| Cc1cc(Cl)ccc1OCC(=O)NC(=S)Nc1ccccc1N1CCOCC1 | 12.4 |

| SMILES | hERG current change (%, negative = inhibition) at 10uM [%] |
| --- | --- |
| CCOC(=O)c1sc(NC(=O)CN2CCN(c3ccccc3)CC2)nc1C | -5.78 |
| C/C(N)=C(/C#N)C(=O)COC(=O)COc1ccc(Cl)cc1 | 6.79 |
| Cc1ccc(/C=N/n2c(-c3ccc(Cl)cc3)n[nH]c2=S)o1 | 15.5 |
| O=C(C1CCCN(S(=O)(=O)Cc2ccccc2)C1)N1CCc2ccccc21 (stereo not drawn) | -33.1 |
| Cc1ccccc1Nc1nc(N)nc(COC(=O)c2cccc(S(=O)(=O)N(C)c3ccccc3)c2)n1 | -7.79 |
| Cc1ccc(S(=O)(=O)c2nc(-c3ccccc3)oc2N2CCC(C(N)=O)CC2)cc1 | -26.3 |
| Cc1ccc(S(=O)(=O)N2CCC(=O)N(CCOCc3ccc(C(F)(F)F)cc3)CC2)cc1 | -41.6 |
| Cc1ccc(NC(=O)COC(=O)Cn2c(C)csc2=O)c([N+](=O)[O-])c1 | -4.5 |
| CCN(CCn1cccn1)Cc1nc(-c2ccc(C(=O)OC)cc2)no1 | -5.09 |
| CCCCNC(=O)c1oc2ccc(S(=O)(=O)N3CCCC3)cc2c1C | -13.4 |
| CCCN(CCC)CCCNC(=O)c1cc2c(=O)[nH]c3ccccc3c2s1 | -4.19 |
| O=C(CSc1nnnn1C1CC1)N1CCN(c2ccccc2F)CC1 | -6.93 |
| CCOC(=O)N1CCC(NC(=O)c2ccc(CS(=O)c3ccc(Cl)cc3)o2)CC1 (stereo not drawn) | -11 |
| CC(=O)Oc1ccc(/C=C2\C=C(c3ccc(C)cc3)OC2=O)cc1 | 12.3 |
| COC(=O)c1cc(OC)c(OC)cc1N=CC1=C(O)CC(C)(C)CC1=O | 3.25 |
| Cc1cc(NC(=O)C(C)SCC(=O)OCc2ccc(Cl)cc2Cl)no1 (stereo not drawn) | 1.04 |
| COc1ccccc1-c1nn(-c2ccccc2)cc1C(=O)NCC(c1ccco1)N1CCCC1 (stereo not drawn) | -53 |
| N#Cc1c(-c2ccc(F)cc2)cc(-c2ccccc2)nc1SCC(=O)NCC(=O)O | -0.355 |
| CC12C(=O)N(n3cnnc3)C(=O)C1C1C=CC2C1 (stereo not drawn) | -2.07 |
| COc1cccc(CN(C)C(=O)CCN=C2NS(=O)(=O)c3ccccc32)c1OC | 10.6 |
| CC(=O)N1c2ccc(S(=O)(=O)N3CCC(C(=O)Nc4cccc(C)n4)CC3)cc2CC1C (stereo not drawn) | 15.8 |
| N#C/C(=C\c1ccc(-c2nc3ccccc3s2)o1)C(N)=O | 5.03 |

| SMILES | hERG current change (%, negative = inhibition) at 10uM [%] |
| --- | --- |
| COc1ccc(/C=N/NC(=O)c2cccc(NC(=O)c3ccccc3Cl)c2)cc1 | -28.4 |
| C=C(C)CNC(=O)c1ccc(OC2CCN(C(=O)COC)CC2)cc1 | 19.2 |
| CCCCOc1ccc(C(=O)N/N=C/c2ccc(OCCN3CCCCC3)c(OC)c2)cc1 | -45.3 |
| O=C1N(Cc2ccccc2)CCCC12CCCN(Cc1ccccc1)C2=O | -3.75 |
| O=C(NCC1CCCO1)c1cc(-c2ccccc2)nc2ccccc12 (stereo not drawn) | -4.4 |
| Cl.NC(CO)C12CC3CC(CC(C3)C1)C2 (stereo not drawn) | 9.97 |
| O=C(O)c1ccc(CN2C(=O)CSC2=S)cc1 | -6.78 |
| Cc1cccc(N2CCN(C(=O)C3CC(=O)N(c4ccc5c(c4)OCCO5)C3)CC2C)c1 (stereo not drawn) | -6.83 |
| O=C(CSc1ccc2nnc(-c3ccccn3)n2n1)Nc1ccc(F)cc1F | -30.4 |
| CC(=O)Nc1cc2nn(-c3ccccc3)nc2cc1C | 17.2 |
| O=C(Cc1ccccc1F)Nc1nc2ccccc2[nH]1 | 6.36 |
| Cc1ccc(C(=O)N2CCC(C(=O)NCc3cccnc3)CC2)cc1 | -7.53 |
| O=C1C2C3C=CC(C3)C2C(=O)N1c1n[nH]c(-c2cccnc2)n1 (stereo not drawn) | 11.1 |
| COc1cc(NC(=O)CSc2nc3cc(C)ccc3cc2C)c(C(=O)O)cc1OC | 2.83 |
| COc1cccc(NS(=O)(=O)c2c(C)cc(C)cc2C)c1 | -3.47 |
| C=CCc1cccc2cc(C(=O)N(C)C)c(=O)oc12 | 1.84 |
| COc1ccc(C)cc1N(CC(=O)N1CCCC1)S(=O)(=O)c1ccccc1 | -0.0589 |
| Cc1cc2cc3c(cc2nc1SCC(=O)OC(C)C)OCCO3 | -5.56 |
| Nn1c(SCC(=O)Nc2nccs2)nnc1-c1cccnc1 | 0.353 |
| Cc1ccc(CN2CCc3[nH]c(=S)[nH]c(=O)c3C2)cc1 | 19 |
| CCn1c(CC(=O)Nc2ccc(C)cc2)nnc1SCC(=O)N1CCOCC1 | 6.97 |
| CCOc1ccc(Cl)cc1S(=O)(=O)NCc1ccccn1 | 3.15 |

| SMILES | hERG current change (%, negative = inhibition) at 10uM [%] |
| --- | --- |
| Cc1ccc2c(c1)C1CC(C)(O2)N(c2cccc(C(=O)NC3CCN(Cc4ccccc4)CC3)c2)C(=O)N1 (stereo not drawn) | -3.24 |
| CCN(CC)C(=O)CSc1nc2ccccc2n1CC(=O)N1CCN(c2ccccc2OC)CC1 | 1.84 |
| COC(=O)C1=C(c2ccc(OC(F)(F)F)cc2)C[C@@H]2CC[C@H]1N2C(=O)NCCOc1ccccc1 | -14.4 |
| C/C(CC(=O)Nc1ccc(Cl)c(Cl)c1)=N\NC(=O)C(=O)N1CCCCC1 | 9.57 |
| CCOC(=O)c1ccc(N=C2C(=S)N(c3ccc(C(=O)OCC)cc3)C(=N)N2/N=C/c2ccccc2)cc1 | -52.7 |
| Cc1cccc(NC(=O)Nc2c(C)[nH]c(=O)[nH]c2=O)c1C | 13 |
| CC(NC(=O)CC1Sc2ccccc2NC1=O)c1ccccc1 (stereo not drawn) | 4.03 |
| COc1ccc2oc(C)c(C(=O)c3ccccc3)c2c1 | -7.34 |
| CCOC(=O)/C=C1\NC(C)(C)Cc2cc(OC)c(OC)cc21 | 1.72 |
| COCCn1c(SC(C)C(=O)Nc2ccc(Cl)cn2)nnc1-c1ccncc1 (stereo not drawn) | 4.13 |
| CCC(=O)N/N=C/c1ccc(-c2ccc([N+](=O)[O-])cc2)o1 | 4.5 |
| Cn1ncc2c(Nc3ccccc3Br)ncnc21 | 9.32 |
| O=C1C2CCCN2C(=S)N1Cc1ccccc1 (stereo not drawn) | 13 |
| Cc1ccccc1S(=O)(=O)Cc1ccc(C(=O)NCc2ccco2)o1 | -32.2 |
| COc1ccc(C(=O)NC(=S)N2CCC(C)CC2)cc1Br | 17.2 |
| CN(Cc1ccccc1)C(=O)COC(=O)c1ccc(Cl)cc1N | -4.58 |
| CCCCCCCC(=O)N1CCN(c2cc3c(cc2F)c(=O)c(C(=O)O)cn3CC)CC1 | -25.1 |
| Cc1nc2ccc(Cl)cc2c(=O)n1-c1cccc(Cl)c1 | 3.78 |
| COC(=O)c1sc(NC(=O)/C=C/c2ccc(C)cc2)nc1C | 13.9 |
| COC(=O)c1ccccc1NC(=O)CSc1nnc(C(CO)NC(=O)c2ccccc2)n1C (stereo not drawn) | -3.17 |
| COc1ccc(-c2cc(C3CC3)nc(SCC(=O)c3cccs3)c2C#N)cc1 | 11.4 |
